Measurements published in the supplement of paper PMC10502849.
Where a name gives a salt, the structure may show the parent alone. The list shows a part of the results. Most values come without repeats; read them as rough.

What was measured:
[1] = test system: H9 teratoma-derived LAM model cells, TSC2-/-; assay: percent SyTOX+ dead cells; higher = more cytotoxic; conditions: 5 µM, treatment time 72 h, culture: 3D hyaluronic acid hydrogel
[2] = test system: H9 teratoma-derived LAM model cells, WT; assay: percent SyTOX+ dead cells; higher = more cytotoxic; conditions: 5 µM, treatment time 72 h, culture: 3D hyaluronic acid hydrogel, genotype: WT
[3] = test system: H9 teratoma-derived LAM model cells, TSC2-/-; assay: percent of cells invaded past median invasion distance of vehicle control; LAM is lymphangioleiomyomatosis; the cells come from teratomas of the human stem cell line H9; higher = more invasion; extreme values may be limits of the assay; conditions: 5 µM, treatment time 72 h, culture: 3D hyaluronic acid hydrogel
[4] = test system: H9 teratoma-derived LAM model cells, WT; assay: as above; conditions: 5 µM, treatment time 72 h, culture: 3D hyaluronic acid hydrogel, genotype: WT
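For percent SyTOX+ dead cells in this document: cells seeded atop a hyaluronic acid gel crosslinked via MMP-cleavable peptides, containing vitronectin peptides and methylcellulose, imaged live by high-content microscopy with automated analysis, one technical replicate per compound.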
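For percent of cells invaded past median invasion distance of vehicle control in this document: live cells imaged by high content microscopy and scored with in-house automated image analysis, one technical replicate per compound in each genotype and rapamycin condition.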

| SMILES | percent SyTOX+ dead cells ([1]; rapamycin 0 nM) | percent SyTOX+ dead cells ([1]; rapamycin 20 nM) | percent SyTOX+ dead cells ([2]; rapamycin 0 nM) | percent SyTOX+ dead cells ([2]; rapamycin 20 nM) | percent ([3]; rapamycin 0 nM) | percent ([3]; rapamycin 20 nM) | percent ([4]; rapamycin 0 nM) | percent ([4]; rapamycin 20 nM) |
| --- | --- | --- | --- | --- | --- | --- | --- | --- |
| O=C(O)C(=O)O.[NH-]C1CCCCC1[NH-].[Pt+2] (configuration not stated) [Oxaliplatin, Eloxatin] | 11.4% | 8.88% | 13% | 7.55% | 53.1% | 29% | 20% | 18.9% |
| c1ccc2c(Oc3nc(Nc4ccc(N5CCOCC5)cc4)c4ncn(C5CCCCC5)c4n3)cccc2c1 [Purmorphamine] | 11.6% | 15.4% | 12.7% | 10.8% | 71.6% | 41.3% | 26.3% | 28.6% |
| Cn1c2ccccc2c2c3c(c4c5ccccc5n(CCC#N)c4c21)CNC3=O | 13.8% | 24.5% | 31.8% | 23.9% | 23.4% | 8.51% | 1.18% | 2.75% |
| Cc1nnc(C(=O)NC(C)(C)c2nc(C(=O)NCc3ccc(F)cc3)c(O)c(=O)n2C)o1 [Raltegravir, MK-0518, Isentress] | 11.2% | 9.42% | 12.5% | 2.48% | 68.6% | 25.4% | 59.7% | 37.1% |
| CC(C)(C)n1nc(-c2cccc3ccccc23)c2c(N)ncnc21 [1-Naphthyl PP1, 1-NA-PP 1] | 30.6% | 26.9% | 31.3% | 38.2% | 2.78% | 4.96% | 0.51% | 1.96% |
| O=C(Nc1nnc(-c2ccco2)o1)c1cc(-c2ccccc2)nc2ccccc12 | 6.42% | 9.5% | 26.4% | 25.5% | 77.1% | 54.8% | 36.5% | 43.5% |
| CCOc1ccn(-c2ccc(F)cc2)c(=O)c1C(=O)Nc1ccc(Oc2ccnc(N)c2Cl)c(F)c1 | 13.1% | 3.25% | 22.8% | 25% | 94.9% | 38.3% | 83.8% | 20% |
| N#C/C(=C(/N)Sc1ccc(N)cc1)c1ccccc1C(F)(F)F | 33.8% | 13% | 9.43% | 12.7% | 49.6% | 35.4% | 1.26% | 6.35% |
| Cc1ccc(NC(=O)c2cccc(N(C)C)c2)cc1NC(=O)c1ccc(O)cc1 | 16.3% | 9.42% | 35% | 14% | 47.4% | 38.2% | 4.12% | 8% |
| COC(=O)Nc1ccc(-c2nc(N3CCOCC3)c3cnn(C4CCN(C(=O)OC)CC4)c3n2)cc1 | 3.92% | 5.36% | 11.9% | 15.1% | 63.4% | 77.7% | 64.3% | 64.6% |
| O=S(=O)(O)c1ccc2cc(N=Nc3cc(S(=O)(=O)O)c4cccnc4c3O)ccc2c1 | 9.72% | 9.79% | 11.9% | 8.33% | 49.6% | 42.1% | 29.4% | 49.6% |
| COc1ccc2c(Oc3ccc(NC(=O)c4c(C)n(CC(C)(C)O)n(-c5ccccc5)c4=O)nc3)ccnc2c1 | 50.8% | 41.4% | 64.3% | 58.3% | 6.25% | 3.02% | 0.78% | 0.28% |
| Cc1ccc(NC(=O)c2cccc(C(C)(C)C#N)c2)cc1Nc1ccc2ncn(C)c(=O)c2c1 | 7.69% | 3.65% | 34.7% | 16.3% | 63.4% | 92.4% | 54.9% | 43.7% |
| COc1ccc2c3n(c(=NC(=O)c4cccnc4)nc2c1OC)CCN3 | 25.2% | 32.6% | 46.9% | 25% | 3.88% | 27.3% | 0% | 7.14% |
| Cc1cncc2cccc(S(=O)(=O)N3CCCN(C(=O)CN)C[C@@H]3C)c12 [H 1152, Glycyl dihydrochloride] | 28.7% | 38.9% | 53.6% | 43.4% | 0% | 0% | 1.12% | 0.53% |
| Cc1ccc(NC(=O)c2ccc(CN3CCN(C)CC3)cc2)cc1Nc1nc(-c2cccnc2)cs1 [Masitinib mesylate, AB1010, AB-1010] | 33.6% | 16.9% | 18% | 27.1% | 34.4% | 29.1% | 4% | 36.1% |
| CCc1nc(-c2cccc(C)c2)c(-c2ccnc(NC(=O)c3ccccc3)c2)s1 | 13.2% | 24.1% | 31.8% | 23.5% | 40.1% | 22.6% | 1.35% | 7.65% |
| Nc1ncnc2c1ncn2[C@@H]1O[C@H](CSCC[C@H](N)C(=O)O)[C@@H](O)[C@H]1O [S-Adenosylhomocysteine, SAH, AdoHcy] | 14.9% | 15.8% | 14% | 13.5% | 80.4% | 21.9% | 56.6% | 48.1% |
| O=C1CCc2c(ccc3ccccc23)O1 [Splitomicin] | 7.34% | 11.8% | 16.1% | 13.3% | 66.4% | 53.5% | 54.4% | 49.7% |
| CN(C)CC[C@H](CSc1ccccc1)Nc1ccc(S(=O)(=O)NC(=O)c2ccc(N3CCN(Cc4ccccc4-c4ccc(Cl)cc4)CC3)cc2)cc1[N+](=O)[O-] | 41.4% | 32.8% | 19.6% | 16% | 70.6% | 35.4% | 45.6% | 33.6% |
| O=C1NC(=O)/C(=C\c2ccc3nccnc3c2)S1 | 10.4% | 4.86% | 18.9% | 20.7% | 61.5% | 30.6% | 58.3% | 23% |
| CCn1c(-c2nonc2N)nc2cnc(Oc3cccc(NC(=O)c4ccc(OCCN5CCOCC5)cc4)c3)cc21 | 18.3% | 17.1% | 17.4% | 16.4% | 0% | 0% | 0% | 0% |

| SMILES | percent SyTOX+ dead cells ([1]; rapamycin 0 nM) | percent SyTOX+ dead cells ([1]; rapamycin 20 nM) | percent SyTOX+ dead cells ([2]; rapamycin 0 nM) | percent SyTOX+ dead cells ([2]; rapamycin 20 nM) | percent ([3]; rapamycin 0 nM) | percent ([3]; rapamycin 20 nM) | percent ([4]; rapamycin 0 nM) | percent ([4]; rapamycin 20 nM) |
| --- | --- | --- | --- | --- | --- | --- | --- | --- |
| CN(C)c1ccc(/C=C2/C(=O)Nc3ccccc32)cc1 | 17.5% | 17.9% | 31.4% | 17.7% | 36.8% | 11.3% | 0.98% | 3.8% |
| CCc1cccc(CC)c1NC(=O)N1Cc2[nH]nc(NC(=O)c3ccc(N4CCN(C)CC4)cc3)c2C1 | 22.6% | 14.3% | 52.4% | 42.6% | 44.6% | 33.9% | 22.5% | 13.7% |
| COCC(=O)NC/C=C/c1ccc2ncnc(Nc3ccc(Oc4ccc(C)nc4)c(C)c3)c2c1 | 9.5% | 7.14% | 12.9% | 5.7% | 34.8% | 36.3% | 20.1% | 26.6% |
| C=C(C)[C@@H](CC=C(C)C)C[C@@]12C[C@@H](CC=C(C)C)C(C)(C)[C@@](CC=C(C)C)(C(=O)C(C(=O)c3ccc(O)c(O)c3)=C1O)C2=O [Garcinol (BML-GR343)] | 17.4% | 16% | 14.3% | 4.9% | 76.7% | 20.7% | 49.1% | 26.6% |
| Cc1ccc2nc(NCCN)c3ncc(C)n3c2c1 | 21.4% | 12.3% | 15% | 14.6% | 63.3% | 41% | 16.9% | 8.46% |
| Cc1nc2ccc(NC(=O)Nc3ccnc4cccnc34)cc2o1 | 13.4% | 13.4% | 6.29% | 9.06% | 36.6% | 25.6% | 49.1% | 22.6% |
| CNC(=O)c1nn(C)c2c1C(C)(C)Cc1cnc(Nc3ccc(N4CCN(C)CC4)cc3)nc1-2 | 67.6% | 38.7% | 82.1% | 64.3% | 0% | 0% | 0% | 0% |
| O=C(Nc1cc(C(F)(F)F)cc(C(F)(F)F)c1)c1cc(Cl)ccc1O | 66.2% | 71.1% | 64.1% | 66.2% | 0.35% | 1.63% | 1.28% | 1.25% |
| Nc1ncnc(Nc2ccc(OCc3ccccc3)c(Cl)c2)c1/C=N/OCCN1CCOCC1 | 10.1% | 19.9% | 12.7% | 18.4% | 20.2% | 14.3% | 26.8% | 5.6% |
| O=C1NC(=O)c2c1c(-c1ccccc1)cc1[nH]c3ccc(O)cc3c21 | 48.7% | 18.2% | 29.2% | 22.8% | 1.32% | 9.09% | 0% | 0% |
| C=CC(=O)Nc1cc2c(Nc3ccc(F)c(Cl)c3)ncnc2cc1OCCCN1CCOCC1 | 30.6% | 39.1% | 68.8% | 62.3% | 0% | 0% | 0% | 1.64% |
| NCc1ccc(Nc2ncc(F)c(Nc3ccccc3)n2)cc1 [Dianilinopyrimidine_01] | 15.6% | 8.25% | 13.5% | 16.6% | 67.9% | 99% | 65.2% | 67.9% |
| Cc1cc(CN2CCN(c3c(Br)cnc4nc(-c5ccc(N6CCN(C)CC6)cc5)[nH]c34)CC2)no1 | 41.2% | 37.5% | 44.8% | 45.6% | 21.5% | 10.5% | 1.58% | 0.73% |
| CC1(C)CNc2cc(NC(=O)c3cccnc3NCc3ccncc3)ccc21 [Motesanib diphosphate salt, AMG-706] | 8.33% | 17.2% | 25.6% | 18.3% | 18.5% | 26.9% | 8% | 15.7% |
| COc1ccc(CNC(=O)Nc2ncc([N+](=O)[O-])s2)cc1 | 21.6% | 16.2% | 10.2% | 8.09% | 46.8% | 29.3% | 28.5% | 13.3% |
| CC(C)N(CCC(=O)c1ccc2ccccc2c1)Cc1ccccc1 | 18.4% | 10% | 13.8% | 7.14% | 69.5% | 50% | 17.4% | 69.3% |
| CO[C@@H]1[C@H](N(C)C(=O)c2ccccc2)C[C@H]2O[C@]1(C)n1c3ccccc3c3c4c(c5c6ccccc6n2c5c31)C(=O)NC4 | 10.8% | 15.8% | 15.1% | 22.6% | 0% | 0.75% | 0% | 0% |
| COc1cc(F)c(C(C)C)cc1-c1ccc(C(F)(F)F)cc1CN1C(=O)O[C@H](c2cc(C(F)(F)F)cc(C(F)(F)F)c2)[C@@H]1C [Anacetrapib, MK-0859] | 12.7% | 7.75% | 16.7% | 19.7% | 62.6% | 56.8% | 57.4% | 43.3% |
| CC(C)(C)c1cnc(CSc2cnc(NC(=O)C3CCNCC3)s2)o1 | 54.8% | 33.6% | 45.9% | 26.6% | 31.1% | 69.5% | 3.82% | 26.1% |
| CC[C@H](Nc1ncnc2[nH]cnc12)c1nc2cccc(F)c2c(=O)n1-c1ccccc1 | 6.03% | 2.67% | 21.9% | 16.9% | 37.2% | 55.6% | 38.7% | 20.2% |
| Cc1cc(Nc2nc(N[C@@H](C)c3ccc(F)cc3)c(C#N)cc2F)n[nH]1 | 59.8% | 62.8% | 75.5% | 63.6% | 3.77% | 11.5% | 0% | 0% |
| CCS(=O)(=O)Nc1ccc2c(c1)/C(=C(/Nc1ccc(CN3CCCCC3)cc1)c1ccccc1)C(=O)N2 [Hesperadin] | 16.7% | 29.8% | 70.8% | 48% | 29.2% | 3.55% | 0.4% | 0% |
